The whole screen tested about 310,000 compounds, of which about 2,200 (0.71%) showed an effect of 50% or more. Effects have a minus sign here. The list shows a part of the results.
Each compound was assayed against human ether-à-go-go-related gene (hERG) potassium channel (human, UniProt Q12809) (assay: primary screen, population patch clamp on CHO cells stably expressing hERG).
Sequence of human ether-à-go-go-related gene (hERG) potassium channel (Q12809 whole entry, looked up): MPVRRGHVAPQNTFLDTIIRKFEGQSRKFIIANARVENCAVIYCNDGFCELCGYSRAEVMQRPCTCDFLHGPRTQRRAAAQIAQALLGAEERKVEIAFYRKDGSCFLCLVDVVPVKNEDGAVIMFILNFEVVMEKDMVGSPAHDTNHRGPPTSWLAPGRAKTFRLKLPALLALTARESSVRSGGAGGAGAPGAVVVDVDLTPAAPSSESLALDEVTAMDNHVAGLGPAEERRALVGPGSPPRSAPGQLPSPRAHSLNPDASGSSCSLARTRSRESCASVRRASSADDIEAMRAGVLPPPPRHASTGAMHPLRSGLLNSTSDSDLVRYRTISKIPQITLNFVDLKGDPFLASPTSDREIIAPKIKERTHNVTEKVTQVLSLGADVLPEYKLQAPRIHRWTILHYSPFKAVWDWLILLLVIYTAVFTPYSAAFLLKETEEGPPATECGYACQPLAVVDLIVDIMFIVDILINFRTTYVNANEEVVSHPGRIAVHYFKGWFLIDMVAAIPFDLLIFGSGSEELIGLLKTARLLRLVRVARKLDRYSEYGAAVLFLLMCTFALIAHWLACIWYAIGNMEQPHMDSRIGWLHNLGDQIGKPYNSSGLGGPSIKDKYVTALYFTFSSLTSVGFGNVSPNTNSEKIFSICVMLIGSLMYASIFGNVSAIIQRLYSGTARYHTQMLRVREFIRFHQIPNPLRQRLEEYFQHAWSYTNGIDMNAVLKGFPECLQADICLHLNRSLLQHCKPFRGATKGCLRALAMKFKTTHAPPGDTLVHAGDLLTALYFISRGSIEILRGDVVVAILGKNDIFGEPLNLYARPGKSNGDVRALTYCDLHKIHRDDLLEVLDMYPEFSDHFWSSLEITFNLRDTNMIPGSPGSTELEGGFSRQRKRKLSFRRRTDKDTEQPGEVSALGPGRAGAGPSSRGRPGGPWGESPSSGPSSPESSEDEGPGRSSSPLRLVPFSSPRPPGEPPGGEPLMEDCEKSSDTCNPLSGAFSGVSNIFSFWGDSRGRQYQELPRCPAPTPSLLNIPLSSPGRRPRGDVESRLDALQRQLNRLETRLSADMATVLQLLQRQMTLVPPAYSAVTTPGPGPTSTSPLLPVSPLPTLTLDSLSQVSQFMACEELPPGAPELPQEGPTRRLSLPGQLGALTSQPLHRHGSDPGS

Structure (SMILES)	hERG current change (%, negative = inhibition) at 1uM [%]
O=C(CCNC(=O)c1ccccc1Cl)Nc1ccc(S(=O)(=O)Nc2ncccn2)cc1	7.06
COc1ccc(SC[C@H](Cc2ccccc2)N2CC[C@@H](O)CCC2=O)cc1	7.19
Cn1c(SCCC#N)nnc1-c1ccccc1F	2.86
Cc1ccc(NC(=O)CCNS(=O)(=O)c2ccc3c(c2)oc(=O)n3C)cc1C	-5.43
COC(=O)C1=C(C(=O)OC)[C@@H]2N(C)c3ccc(OC)cc3[C@@]23C[C@@H](C(=O)OC)N(C(=O)c2cc(C)oc2C)C3=N1	2.97
COc1ccc(C(=O)c2c(C)oc3ccc(O)cc23)cc1	8.72
COC(=O)Cn1cc(C(=O)C2CC2)c2ccccc21	5.85
C/C(CC(=O)Nc1ccc2ccccc2c1)=N\NC(=O)c1cnccn1	1.84
CCN(C(=O)CSc1nccn1C)c1cccc2ccccc12	7.56
CC1CCC(NC(=O)Cn2c(=O)oc3ccccc32)CC1 (centres unmarked)	7.33
CCN1C/C(=C/c2cccs2)c2nc3ccccc3c(C(=O)O)c2C1	8.53
C#CCOC(=O)CCCC(=O)Nc1ccccc1OC	9.23
O=C(C1CCCO1)N1CCN(S(=O)(=O)c2ccc(Br)cc2)CC1 (centres unmarked)	11.5
CCOc1ccc(CCNC(=O)CN2C(=O)NC3(CCc4ccccc43)C2=O)cc1OCC (centres unmarked)	-9.42
Cc1cc(-c2onc3ccc(Cl)cc23)ccc1O	19.7
CN(CC(O)COCc1ccc2c(c1)OCO2)C1CCCCC1.Cl (centres unmarked)	-22.5
CCc1ccc(-c2cc3c(=O)n(CC(=O)NCCCN4CCC(Cc5ccccc5)CC4)nc(C)n3n2)cc1	16.5
COc1ccc(C(C#N)N2N=C(C)CC2c2ccccc2)cc1 (centres unmarked)	4.86
c1ccc(CSC2=NNC(c3ccccn3)S2)cc1 (centres unmarked)	15.7
CCOC(=O)C(Cc1ccccc1)C(=O)Nc1ccc(NC(=O)C(Cc2ccccc2)C(=O)OCC)cc1 (centres unmarked)	-10.5
Cc1cc(C)nc(N/N=C2/CCCC/C2=C\c2ccccc2)n1	10.4
CCN(CC)S(=O)(=O)c1ccc(N2CCOCC2)c(NC(=O)CC23CC4CC(CC(Br)(C4)C2)C3)c1	3.31
CCN(CC)CC(O)COc1ccc2c(c1)OCO2.Cl (centres unmarked)	-1.81

Structure (SMILES)	hERG current change (%, negative = inhibition) at 1uM [%]
COc1ccc(/C=C(/NC(=O)c2ccccc2)C(=O)NCC2CCCO2)cc1 (centres unmarked)	11.8
Cn1c(Cc2nc3ccccc3n2C)nc2ccccc21	7.78
Cc1ccc2[nH]c3c(Cl)ncnc3c2c1	13.1
CS(=O)(=O)N1CCC(C(=O)O)CC1	11.7
Fc1ccc(NC(=S)N2CCOCC2)c(F)c1	9.83
CS(=O)(=O)N(CC(=O)N1CCN(c2ccc(F)cc2)CC1)C1CCCCC1	-0.101
CC1CCN(S(=O)(=O)c2cccc(C(=O)N(C)C3(C)CCS(=O)(=O)C3)c2)CC1 (centres unmarked)	10.8
Cc1ccccc1NS(=O)(=O)c1ccc(C(=O)NCC2CCCO2)cc1 (centres unmarked)	0.609
C=CCc1c(OC)ccc2ccc(=O)oc12	9.89
COc1cccc(C2C=C(c3cccs3)Nc3ncnn32)c1OC (centres unmarked)	13.4
CCCCN=C(C)c1c(O)c2ccccc2oc1=O	-1.59
COC(=O)c1sccc1S(=O)(=O)Nc1ccc(Cl)cc1	12.7
CN(C)c1ccc(/C=c2/sc3n(c2=O)NC2(c4ccccc4)N(C)C(=O)N(C)C2(c2ccccc2)N=3)cc1 (centres unmarked)	2.12
CCN(CC)C(=O)N1CCN(S(=O)(=O)c2ccccc2)CC1	15.9
O=C(CCNC(=O)c1ccccc1)Oc1ccc([N+](=O)[O-])cc1	1.41
CCCCCOC(=O)CC(C(=O)OCCCCC)N1CCCCC1.Cl (centres unmarked)	6.37
COc1ccc(CN2CC(C(=O)NCCCN3CCCCCC3)CC2=O)cc1 (centres unmarked)	9.46
Cl.O=C(CCN1CCc2ccccc2C(c2ccccc2)C1)c1ccc2c(c1)OCCO2 (centres unmarked)	6.25
c1csc(CN2CCOCC2)c1	10.1
O=C(COC(=O)C12CC3CC(CC(O)(C3)C1)C2)Nc1ccccc1OC(F)F	-5.36
O=C(NCC1CCCO1)c1ccc(CS(=O)(=O)c2ccc(Br)cc2)o1 (centres unmarked)	0.33
Cc1ccccc1OCC(O)CN.Cl.O (centres unmarked)	3.7
O=C(NC(Cc1ccccc1)C(=O)Oc1ccc2c(C(F)(F)F)cc(=O)oc2c1)OCc1ccccc1 (centres unmarked)	11.1

Structure (SMILES)	hERG current change (%, negative = inhibition) at 1uM [%]
CC(C)c1onc(C(=O)NC2CCCCC2)c1[N+](=O)[O-]	9.82
Cc1ccc(NC(=O)CN(C)C(=O)CSc2nnc(C(F)(F)F)n2C)cc1	19.2
CCOc1ccc(N(CC(=O)N2CCCC2)S(=O)(=O)c2ccc(Cl)cc2)cc1	9.67
FC(F)(F)c1ccc(Cl)c(-n2c(-c3cc(-c4ccco4)[nH]n3)n[nH]c2=S)c1	14.3
Cc1ccc2nc(SCC(=O)c3ccc4c(c3)NC(=O)CO4)[nH]c2c1	7.24
CC(=O)N1CCc2cc(S(=O)(=O)NCC(=O)NCc3ccc(F)cc3)ccc21	14.5
Cc1cccc(N2CC(C(=O)Nc3nnc(SCc4ccccn4)s3)CC2=O)c1 (centres unmarked)	9.91
N=c1c(C(=O)NCC2CCCO2)cc2c(=O)n3ccccc3nc2n1Cc1ccc(F)cc1 (centres unmarked)	-82.7
O=C(CSc1nc2ccccc2s1)N1c2ccccc2Sc2ccc(Cl)cc21	11.7
CCOC(=O)N1CCC(NC(=O)c2cnn3c(C(F)(F)F)cc(-c4cccc(OC)c4)nc23)CC1	-12.5
C=CCNc1nc(C)nc(OC)n1	10.2
O=C(N/N=C\c1cc([N+](=O)[O-])ccc1N1CCOCC1)c1ccccn1	5.53
c1cn2cc(-c3ccc4c(c3)OCO4)nc2s1	8.59
c1ccc(Cn2ccnc2-c2ccco2)cc1	0.833
Cc1cc(NC(=O)NN2CCOCC2)nn1-c1c(Cl)cc(Cl)cc1Cl	13.1
Cl.OC(CN1CCOCC1)c1csc2ccccc12 (centres unmarked)	15.3
CCN(CC)S(=O)(=O)c1ccc(NC(=O)CC(NC(C)=O)c2ccccc2)cc1 (centres unmarked)	9.93
CCN(CC)c1ccc(NC(=O)c2cncc(Br)c2)cc1	5.66
COc1ccc(CNC(=O)CCN2C(=O)c3ccccc3C2=O)cc1	6.96
O=C(CNS(=O)(=O)c1cccc2nonc12)NCc1ccc(F)cc1	2.79
COc1ccccc1N(CC(=O)Nc1ccc(C(F)(F)F)cc1)S(C)(=O)=O	13.7
COc1ccc(-c2c(NCCc3ccccc3)c(=O)c2=O)cc1	11.5
Cc1ccc(N(C(=O)Cn2nnc(-c3ccc(C)o3)n2)C(C(=O)NC2CCCC2)c2ccncc2)cc1 (centres unmarked)	3.36

Structure (SMILES)	hERG current change (%, negative = inhibition) at 1uM [%]
O=C(c1ccc(Cl)c([N+](=O)[O-])c1)N(Cc1ccco1)C1CCS(=O)(=O)C1 (centres unmarked)	3.95
COCCNC(=O)c1ccccc1NS(=O)(=O)c1ccc(C)c([N+](=O)[O-])c1	19.6
CS(=O)(=O)N1CCN=C1SCc1ccc(Br)cc1	11.9
COC(=O)C1=C(c2ccc(-c3ccccc3)c(F)c2)C[C@@H]2CC[C@H]1N2C(=O)N1CCOCC1	6.38
CC(C)n1ncc2c(C(=O)N3CCN(c4ccc(F)cc4)CC3)cc(-c3ccccc3)nc21	2.72
O=C(Nc1nccs1)c1cccc(S(=O)(=O)N2CCCCC2)c1	5.95
COc1ccc(NC(=O)n2nc(OC(=O)c3cccs3)cc2N)cc1	13.5
Cc1onc(-c2ccccc2)c1C(=O)Nc1sc2c(c1C(N)=O)CCC2	16.5
COc1ccc(NC(=O)c2oc3ccccc3c2NC(=O)C2CCCO2)cc1OC (centres unmarked)	-7.45
COc1cc2nc(Nc3ccc(C)c(Cl)c3)nc(N)c2cc1OC.Cl	11.7
Cc1sc2c(c1C)C(c1ccc(C(C)(C)C)cc1)=NCC(=O)N2CC(=O)Nc1nccs1	-6.63
N#C/C=C(/N)c1ccc(Br)cc1	2.55
COc1ccccc1NC(=O)CN1CCN(CC(=O)Nc2ccc(S(N)(=O)=O)cc2)CC1	12.1
CNC(=S)NNc1ccccc1[N+](=O)[O-]	15.1
CC(C)C(=O)Nc1nnc(S(=O)(=O)N2CCc3ccccc32)s1	0.94
Cc1c2c(nc3ccccc13)CCC(C(C)(C)C)C2.Cl (centres unmarked)	6.34
O=C(c1ccc(Cl)c(S(=O)(=O)N2CCCC2)c1)N1CCN(c2ncccn2)CC1	9.96
Clc1nn2cnnc2c2ccccc12	4.75
Cc1[nH]n(-c2ccccc2)c(=O)c1N=Nc1nccs1	6.03
COc1ccc2cc(C(=O)Nc3ccccc3)sc(=O)c2c1OC	13.7
